# Reference: the supplement of paper PMC3334620
# Over roughly 33,000 sequences, “E-score (-0.5 to 0.5)” has its median near -0.032; the highest 2% begin near 0.36. The list shows a part of the results.
# Molecular target: T1, Sko1 (UniProt Q02100)
# T1 sequence: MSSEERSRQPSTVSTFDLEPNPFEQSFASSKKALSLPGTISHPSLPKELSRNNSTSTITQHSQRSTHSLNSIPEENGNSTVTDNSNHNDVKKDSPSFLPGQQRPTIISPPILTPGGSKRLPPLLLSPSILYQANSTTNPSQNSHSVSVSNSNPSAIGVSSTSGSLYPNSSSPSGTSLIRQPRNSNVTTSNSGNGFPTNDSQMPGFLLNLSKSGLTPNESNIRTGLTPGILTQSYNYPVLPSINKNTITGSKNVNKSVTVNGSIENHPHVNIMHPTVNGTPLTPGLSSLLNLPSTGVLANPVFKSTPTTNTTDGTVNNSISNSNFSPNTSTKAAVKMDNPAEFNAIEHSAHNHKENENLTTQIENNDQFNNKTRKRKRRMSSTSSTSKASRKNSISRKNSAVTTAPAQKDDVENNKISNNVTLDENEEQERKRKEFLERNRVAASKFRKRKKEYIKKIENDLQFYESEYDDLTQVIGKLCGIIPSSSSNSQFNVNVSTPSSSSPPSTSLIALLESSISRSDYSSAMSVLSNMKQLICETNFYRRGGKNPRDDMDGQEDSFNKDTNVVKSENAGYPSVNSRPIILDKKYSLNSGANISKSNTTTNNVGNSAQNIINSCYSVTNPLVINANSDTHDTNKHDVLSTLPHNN
# Assay: PBM E-score (8-mer binding enrichment) (E-score (-0.5 to 0.5)); higher = stronger / more preferred TF binding; most listed sequences are background and not binding sites
# Details: protein concentration: 200 nM; construct: GST-full length
# Method in brief: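 Bound GST-tagged yeast transcription factors, applied at about 100-200 nM to double-stranded universal all-10-mer Agilent arrays, were detected with fluorescent anti-GST. Scans were normalised with masliner. A modified Wilcoxon-Mann-Whitney statistic, the E-score, was assigned to each ungapped eight-base word pooled with its reverse complement by the Universal PBM Analysis Suite.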
row,Sequence,PBM E-score
1,GCGTTGGA,-0.00317
2,CCAGCCTC,-0.238
3,TAAAGCCA,0.103
4,CCAAGTCC,-0.282
5,TCATGTCA,0.306
6,AAGGCGCC,-0.333
7,CTGGGATC,-0.184
8,CAGAATAG,-0.0348
9,ACGTCCTG,0.181
10,GCCCGGAA,-0.31
11,ACAAGGCT,-0.192
12,CTAACATC,0.0802
13,TACTCCGA,-0.246
14,CCACCGCG,-0.00103
15,TACGTCGA,0.422
16,CCAGTGAG,-0.193
17,CCTGTCCA,-0.401
18,AATCGTCC,0.0937
19,CGATGCCC,-0.187
20,ATTGGAGA,0.0978
21,AATTGGAA,0.0969
22,CGGTGCGA,0.0547
23,CCAGACGG,-0.364
24,ACAACTCA,0.00058
25,AATTCGAT,0.116

row,Sequence,PBM E-score
1,ACGTGGGA,0.313
2,GTACTCAA,0.0529
3,AGGCTATC,-0.0942
4,AGAGGTTA,-0.0283
5,AATCACCG,-0.0938
6,AATAGGAA,0.086
7,CCGCTATA,0.0771
8,TGCCGAAA,-0.0554
9,GTAGCCAA,-0.019
10,CCAGAGAG,-0.331
11,CGCTGGCC,-0.32
12,CGAGAGTA,0.0833
13,AGCAGCTG,-0.136
14,CGACAGTC,-0.185
15,AGTATAAG,0.113
16,GTAGGCGA,-0.0929
17,AAACCGTT,-0.145
18,ATAAGATA,0.161
19,CAGTGTGC,-0.314
20,CAGAGTGA,0.00479
21,ACACTCCG,-0.0952
22,AGGATGGC,-0.142
23,CTCATTGA,-0.0333
24,AAGACCAC,-0.174
25,AACTCGAT,0.109

row,Sequence,PBM E-score
1,CGATAACG,0.257
2,ACCAAAAT,0.0116
3,CATGCATC,-0.0481
4,CTCAAGTA,0.0258
5,ACCCCGGC,-0.174
6,ACCCCCCC,-0.378
7,CAGATACA,0.211
8,AGGCCAGC,-0.155
9,GATAACGC,0.0841
10,CCTGCGGA,-0.161
11,TAGGTACA,-0.00865
12,CAACATCA,0.294
13,CGCTGCCA,-0.127
14,ACGTTTAT,0.388
15,AGCAGACG,-0.12
16,GTCTTTGA,0.066
17,CCACGATC,0.141
18,GATGAGGA,-0.0131
19,AGGCGTTC,-0.217
20,ATTCGAGC,0.107
21,GTATGAAA,0.211
22,TATAGACA,0.0561
23,GGATTGAA,0.0807
24,GGGGGTAA,-0.183
25,ACAGGGTA,-0.108

row,Sequence,PBM E-score
1,AAGTAACG,0.0665
2,GGGGGGGA,-0.38
3,AAGTTAGT,0.102
4,GGGGACAA,-0.194
5,CACGAGTA,0.0469
6,AACTACTG,-0.131
7,GAATACGA,0.259
8,TCACATGA,0.135
9,ATGGATAG,-0.0813
10,ATAGACAA,0.108
11,AGTTGCGC,-0.102
12,AACAGGGT,-0.192
13,CCCCTGCC,-0.196
14,ATAGCCTA,-0.0632
15,ATAACGGA,0.0991
16,AGGCTTAT,-0.0415
17,GTCTTAGA,0.0308
18,CGTGCAAC,0.0822
19,AATACAGG,-0.0789
20,GCTGCTAA,-0.197
21,GTTGGCTA,-0.108
22,ACGCGCCC,0.00867
23,AACAGATC,0.0098
24,GGGTTACC,-0.211
25,CCATTATC,0.0338

row,Sequence,PBM E-score
1,CCAGTCCG,-0.352
2,TAATCAGA,0.0523
3,CATTTCAC,-0.00575
4,GCCCTCAC,-0.217
5,CTCCGCAC,-0.165
6,CATCTGCC,-0.292
7,AACTGCTC,-0.113
8,CCTGGGGC,-0.371
9,ACATGAAT,0.229
10,CGCTCTCC,-0.163
11,CCCCTCCA,-0.144
12,ACGATGGG,-0.0319
13,CTATAACA,-0.0202
14,AGATTCCC,-0.101
15,ATACGCGG,-0.00698
16,AGGGACTG,-0.281
17,ACGATTAG,0.198
18,GTGTTTAA,0.0721
19,GCAAAAGA,-0.131
20,ATAGCCCG,-0.199
21,AAGTGATT,0.0606
22,ATTCCTCC,-0.111
23,CTAACGAA,0.0318
24,GGGTGAAC,-0.114
25,CTGTTCGA,-0.13

row,Sequence,PBM E-score
1,ATAGACCG,-0.0315
2,CTGTTGCC,-0.307
3,GACTTTTA,0.0964
4,CTTCGCTC,-0.0824
5,GGTTAATA,-0.01
6,CAGCTGGG,-0.308
7,CTGCCGTC,-0.12
8,GAAATCCA,0.0564
9,AGACTACC,-0.0734
10,ATCAAACC,0.0551
11,GCATAGCC,-0.157
12,AACGAGTA,0.0927
13,CGTGGATA,0.0696
14,AGCACACT,-0.0868
15,AAGCGGTC,-0.2
16,ATCCAGTC,-0.13
17,GCGGTACA,-0.112
18,ACGTTCAG,0.0463
19,ATCAGATC,-0.0621
20,CAATTGTA,0.00515
21,ACAACCCC,-0.221
22,GATGGTAC,-0.0113
23,CCTTAGCC,-0.207
24,TCTAAAGA,0.101
25,ACGGGCAC,-0.112

row,Sequence,PBM E-score
1,AACCTTAT,-0.164
2,ACTCCGGA,0.0861
3,CCAGTCAA,-0.146
4,AACGGATA,0.151
5,AATAGATC,0.0397
6,CGCGAGGC,-0.172
7,ATGCGAAT,0.103
8,AATAATGA,0.182
9,GAAAATGA,0.17
10,AGACCAAG,-0.0941
11,ACCGGTAC,-0.232
12,GAATGCAA,0.0942
13,CGATAAGC,-0.219
14,TGGAGGAA,-0.201
15,AGATAGGG,-0.14
16,CGATTCTA,-0.0581
17,CTGCCAAA,0.0757
18,CTACCGCC,-0.293
19,AAAAGTCC,-0.0224
20,AAGAAGGT,-0.0729
21,AGTCCACT,-0.213
22,AGAAGGCC,-0.163
23,AAGAACGG,-0.289
24,AAGTCATC,0.0763
25,ATTGCAAG,-0.0657

row,Sequence,PBM E-score
1,AAGGCTAT,-0.15
2,AGGCAGAA,-0.0954
3,CCCGAAAG,-0.114
4,CATGTGGC,-0.0269
5,AGATCACA,-0.0686
6,CTAGCCGC,-0.185
7,CCACTTAC,0.173
8,AGAGATCC,-0.156
9,GGCGCGCC,-0.112
10,ACTACAAT,0.172
11,ATAACACG,0.172
12,ATTTCCCA,0.118
13,AGGCATCC,-0.169
14,GGAAGTTA,0.0161
15,AATCAAAC,0.229
16,GGTTCATA,0.0132
17,CCCCCCGG,-0.226
18,CTGTGAAG,-0.221
19,CGAACAGC,0.01
20,CCTGTTAC,0.184
21,CCCTGTGA,-0.0284
22,CGATCTAC,0.133
23,GTTGCTAA,0.143
24,CCAACAGG,-0.213
25,CTATATAC,0.34

row,Sequence,PBM E-score
1,ACCTGATA,0.0213
2,CCCGTTCA,-0.253
3,AAAGGGGG,-0.239
4,TTGACAAA,0.233
5,ACAATCGT,0.168
6,GGTACTAA,0.148
7,GTGGCTAA,0.0152
8,ACGATCCC,-0.175
9,CCAAGCGG,-0.364
10,AGAGCAAG,-0.0916
11,ACACGAGT,-0.0245
12,GCGGTATA,-0.0701
13,CGTCCATA,0.197
14,GGCCACCA,0.0382
15,CGGAATTA,0.174
16,GGATGCGA,-0.213
17,CTTATCAC,0.108
18,ACCCTATA,-0.179
19,ATTCCATC,0.122
